In the CheMixHub viscosity set:

| SMILES | viscosity (303.15 K, 100 kPa) | viscosity (308.15 K, 100 kPa) | viscosity (313.15 K, 100 kPa) | viscosity (318.15 K, 100 kPa) | viscosity (293.15 K, 101 kPa) | viscosity (298.15 K, 101 kPa) | viscosity (303.15 K, 101 kPa) | viscosity (308.15 K, 101 kPa) | viscosity (313.15 K, 101 kPa) |
| --- | --- | --- | --- | --- | --- | --- | --- | --- | --- |
| CNC=O | 1.585 mPa·s [study A] and 1.585 ± 0.061 mPa·s [study B] and 1.585 ± 0.036 mPa·s [study C] | 1.462 mPa·s [study A] and 1.462 ± 0.061 mPa·s [study B] and 1.462 ± 0.034 mPa·s [study C] | 1.352 mPa·s [study A] and 1.352 ± 0.061 mPa·s [study B] and 1.352 ± 0.031 mPa·s [study C] | 1.255 mPa·s [study A] and 1.255 ± 0.06 mPa·s [study B] | – | – | – | – | – |
| CCCCOCCO | – | – | – | – | 3.187 ± 0.029 mPa·s [study A] and 3.239 ± 0.083 mPa·s [study B] and 3.239 ± 0.029 mPa·s [study C] and 3.239 ± 0.02 mPa·s [study D] | 2.792 ± 0.021 mPa·s [study A] and 2.825 ± 0.072 mPa·s [study B] and 2.795 ± 0.021 mPa·s [study C] and 2.825 ± 0.017 mPa·s [study D] and 2.825 ± 0.032 mPa·s [study E] | 2.449 ± 0.063 mPa·s, 2.449 ± 0.024 mPa·s, 2.449 ± 0.015 mPa·s, 2.823 ± 0.72 mPa·s (2×), 2.823 ± 0.051 mPa·s, 2.403 ± 0.24 mPa·s, 2.404 ± 0.055 mPa·s, 2.411 ± 0.028 mPa·s, 2.428 ± 0.098 mPa·s, 2.446 ± 0.022 mPa·s [several studies] | 2.29 ± 0.052 mPa·s [study A] and 2.279 ± 0.092 mPa·s [study B] and 2.079 ± 0.022 mPa·s [study C] and 2.288 ± 0.23 mPa·s [study D] | 2.12 ± 0.049 mPa·s [study A] and 2.121 ± 0.086 mPa·s [study B] and 1.93 ± 0.017 mPa·s [study C] and 1.689 ± 0.02 mPa·s [study D] and 2.119 ± 0.21 mPa·s [study E] |

± gives the uncertainty stated by the source. A number of entries come with more than one value. They are shown here; other results are not. The source may hold further records. Values that stand side by side are repeats across runs, samples, wells, individuals or studies. What stands in brackets tells the records apart. Letters count within one entry. Counts like (3×) say how often a value occurs here.
